Data reported in PubChem BioAssay (NCI).
More than one record can exist for a structure, and the calls need not agree.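 The test compound was applied at a single concentration to cells in 96-well plates for 48 hours, and percent growth was recorded.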 Not every entry of the source has a single result; some have several. They are shown here; other results are not. How the source made its calls: active means growth percent below 10; inactive means the rest. The source may hold further records. These are repeated runs of one drug, at the concentration stated with the values; each value is one run. Counts like (3×) count equal records among those shown.

How the values were obtained:
OVCAR-5 ovarian = assay: NCI-60 one-dose screen, 48 h (100 = growth as untreated, 0 = no growth, -100 = all killed)
OVCAR-4 ovarian = assay: as above; details: 0.25 µM

COc1cccc2c1C(=O)c1c(O)c3c(c(O)c1C2=O)C[C@@](O)(C(=O)CO)C[C@@H]3OC1CC(N)C(O)C(C)O1 (some centres not stated)
growth (OVCAR-5 ovarian; 0.25 µM, runs of 2015): inactive: 68.6 (2×), 71.2 (2×), 85.2, 74.8 (2×), 65.6, 71.7, 63, 77.5, 64.4, 86, 89.3, 74.1 (2×), 80.6, 91.3, 71.8, 61.3, 58.2, 56.9, 64.8, 60.3, 64.2 (2×), 70, 85.8, 69.8, 70.5, 62.4, 63.1, 74.2, 79, 84.5, 83.3, 83.7, 82.7, 83.1, 79.3, 77.7, 75.9, 82, 79.6, 88.6, 76.1, 75.1, 65.4, 71.3, 66.6, 74, 72.9, 73.6, 65.9, 85.6, 94.7, 79.2, 78.2, 95.4, 81, 87.4, 72.6, 90.7, 94.8, 86.7, 82.8, 77.6, 78.8 (3×), 75.8, 86.4, 77.4, 76.3, 70.2, 74.9, 70.7, 77.8, 80.4, 72.4, 86.9, 78.1, 81.8, 87.5% | growth (OVCAR-5 ovarian; 0.25 µM, runs of 2016): inactive: 83.3 (2×), 82.9, 98.2 (2×), 94.8, 99.3, 71.2, 76.5, 85, 81.8, 87.7, 77.1, 83.1, 75, 86.4, 69.6, 82.4, 91.5 (2×), 77.6, 74.8, 83, 90.2, 92.4, 78.4, 75.4, 63.3, 83.4, 90.4, 69.2, 70.3, 73.5, 80.2, 69.7, 84.7, 88.6, 96.6, 80, 94.6 (3×), 85.1, 82.2, 85.4, 84.5, 85.9, 93.2, 91.8 (2×), 89.7 (2×), 84.3, 85.8, 93.1, 90.8, 91.1, 93.8, 89.1, 93.3, 97.8, 98.5, 94.1 (2×), 95.1, 102 (2×), 99.4, 91.7, 89.3, 95, 94.4, 98.1, 87.8, 94.2, 101% | growth (OVCAR-5 ovarian; 0.25 µM, runs of 2017): inactive: 85.5 (2×), 87.9, 83.2, 88, 84.5, 89.3, 74.8 (2×), 72.5, 78, 85, 81.2 (3×), 78.2, 76.9 (2×), 76.6, 75.8 (3×), 83, 83.3 (2×), 76.3 (2×), 73.2, 77.3, 82.6 (2×), 78.4, 73.3, 78.8, 92.4, 75, 87.2, 70.7, 75.2 (2×), 74.2 (2×), 86.4, 72.8, 75.3, 70.3, 77.4, 76.7 (2×), 77.7, 81.5, 85.8 (3×), 76, 79.6, 87 (2×), 90.3, 69.2, 71.8, 69.3, 69.9, 79.9, 96.7, 77.1, 77.8, 78.5, 94.6, 73.8, 71.7, 81.7, 84.3, 72.6, 74, 81.1, 91.1, 78.3, 78.1, 75.7% | growth (OVCAR-5 ovarian; 0.25 µM, runs of 2018): inactive: 78.8, 79.2 (2×), 77 (2×), 79.6, 83.4, 82.8 (2×), 73.8, 78.5, 75.8, 80.7 (2×), 82.3, 88.9, 89, 95, 83.7 (2×), 89.2, 76.9 (2×), 82.5, 84, 71.8, 74, 76, 77.4, 87.2, 74.7, 83, 87.4 (3×), 83.1, 78.2 (3×), 90, 89.1, 82 (2×), 81.4, 88.7, 79.1, 82.6, 85.6, 80.5, 75.3, 79.8, 52.7% | growth (OVCAR-5 ovarian; 0.25 µM, runs of 2019): inactive: 61.6, 68.5, 63.9, 50.6, 62.5, 72, 84.4, 79.1, 88.2 (2×), 97.5, 78.5, 77.7 (2×), 94.5, 96.1, 74.7, 83.7, 67.2, 66.1, 73.6, 70.6, 81.2, 79.6, 80, 81.5, 98.3, 91.6, 86.8, 85.4, 87.2, 81.1, 91.5, 76.7, 82.7, 86.1, 85.9, 82.9, 74, 76.8, 74.9, 89.6, 67.5, 75.4, 65, 65.1% | growth (OVCAR-5 ovarian; 0.25 µM, runs of 2020): inactive: 74, 69.4, 74.4, 80.7, 76.2, 76.7, 67.2, 77.7, 71.2, 73.8, 77.1, 68.9, 70.5 (2×), 78.5 (2×), 89.7, 77.5 (2×), 73.3, 82.9, 81, 90.4, 74.6, 79.2% | growth (OVCAR-5 ovarian; 0.25 µM, runs of 2021): inactive: 89.9, 96.4, 101, 83.7, 81.2, 78.4, 58.2, 70.6, 65.7, 72.3, 65.4 (2×), 64, 72.9 (2×), 81.7, 80.1 (2×), 75.9, 79.1, 76.2, 63.2, 81.1, 88.2 (2×), 72.4, 78.7 (2×), 64.8, 71.5, 79, 77.4, 80.6, 79.2, 75.1, 73.5, 68.5, 75.3, 78.8, 85.8, 80.3 (2×), 86.4, 58.9, 70.9, 63.1, 71, 53.4, 67.6 (2×), 80.2, 74.3% | growth (OVCAR-5 ovarian; 0.25 µM, runs of 2022): inactive: 16.8, 16, 64, 78.4, 56.8, 35.3, 55.8, 60.2, 73.5, 65.9, 68.2, 84, 70, 78.1, 82.2, 75.4, 70.8, 89.7, 98.5, 93.7, 109, 87.5, 65.3, 69.2, 62.4, 68, 55.1% and active: 7.62% | growth (OVCAR-5 ovarian; 25 µM, runs of 1991): active: -10.9, -68.4, -55.2, -42.6, -43.6, -4.91, -14.1, -54.5, -37.3, -13.8, 5.42, -27.7, -15.4, -28.5, -5.01% and inactive: 14% | growth (OVCAR-5 ovarian; 25 µM, runs of 1992): active: -46.5 (2×), 3.91, -22.2, -6.93, -38.8, -53.2, -70, -34.9, -45.1, -8.29, -25, -35.3, -37.1 (2×), -16.4, -16, -24.5, -27.5 (2×), -23.8, -40.1, -43.6, -42.5, -43.7 (2×), -16.5, -46.4, 7.7, -39.1, 0, -43.1, -21 (2×), -12.3, -28.2, -39.7, -40.3, -21.7, -28, -50.4, -41.1, -31.5, -25.8, -34.8, -11.2, -5.57, 0.528, -12, -2.61, -28.9, -39.6, -32.3, -23.4, -35.8, -22.5, -42.4, -34.6 (2×), -15.1, -18.2, -11, -23.5, -31, -36.8, -6.76, -22.8, -17.3, -17.2, -11.7, -18.6, -13.4, -7.74, -26, -3.84, -4.55, -21.4, -8.14, -48.6, -12.5, -19.2, -21.2, -10.8, -24.4, -12.8, -12.2, -17.5, -18.4, -17.1, -42.7, -6.99, -9.42, 0.828, -41.8, -39.2, -16.1, -8.48, 3.18, -27.1, -33.3, -16.2, -38.4, -24.9, -28.4, -15.5, -49.7, -41.5, -29.9% and inactive: 14.6% | growth (OVCAR-5 ovarian; 25 µM, runs of 1993): active: -38.7, -10.5, -24.1, 1.2, -12.4, -21.1, -17.6, 6.78, 1.8, -41.1, -31, -9.4 (2×), -15.4 (2×), -6.39, 1.93, 0.591, -46.7, -20.6, -1.08, -7.43, -32.9, -2.1, -40.6, -17.2, 5.33, -43.5, -21.3, -30.6, -30.5, -30, -15.2, -34.6, -25.8, 6.58, -34.3, -6.73, -12.2, -13, 0.969, -18.8% | growth (OVCAR-5 ovarian; 25 µM, runs of 1994): active: -15.4, 0.804, 1.4, -13.3, -3.85, -26.2, 7.01, -8.78, -41.5, -5.47, 6.48, -7.51, -3.03, -33.7, -15.3, -15, -22.4, 3.24, -34.6, -19.2, -23.1, -32.3, -5.58, -39.5, -14, -6.2, 3.68, -13.8, 2.88, 0.36% and inactive: 51.6%, 12.5% | growth (OVCAR-5 ovarian; 25 µM, runs of 1995): active: 7.17, 3.83, -2.2, 8.14, -18.3, 1.45, -20, 5.07, -3.42, -33.9, -25.3, -30.4, -24.3, -27, 5.25, 0.793, -47.9, -17.8, -17.1, -21.5, 8.92, -17.4, 8.52, 0.575, 1.39, -11.1, -7.21, -16.8, -2.81, -0.949, -36.4, -34.8, -42.5, -19% and inactive: 29.7%, 13.3% | growth (OVCAR-5 ovarian; 25 µM, runs of 1996): active: -4.46, 5.26, -11.8, -1.09, -37.5, -7.84, 9.37, 6.03, -14.1, -7.99, -11.5, 3.58, 2.38, -13.5, 1.17, -40, -16.9, 0.888, 7.91, -14.8, 5.18, 6.54, 8, -11.9, 0, -7.14, -29.2, -11.6, -19.3, -32.6, -13.7, -1.86, 2.58, -2.01 (2×), -6.43, -38.4, 5.3, 1.16, -5.95, -15.9, -10, 0.606, -19.8, 3.46, -17.9, 2.09, -2.18, 2.42, -6.19, 2.54, 2.77, -8.3, -10.9% and inactive: 102, 100, 21.9, 23.7% | growth (OVCAR-5 ovarian; 25 µM, runs of 1997): active: -4.39, -10.7, -12.5, -3.4, -7.84, -41.2, 1.01, -21.5, -7.3, -27, -40.5, -0.249, -33.4, -4.07, -13.4, 3.28, -80.7, -12.7, -7.83, -5.92, -43.3, 6.93, -6.63, 3.06, 8.48, -2.45, 6.95, -35.9, -13.2, 7.46, -22.2, 7.5, -29.4, -4.22, 4.01, 3.31, -4.52, 4.91, -11.5, -3.46, -27.5, -14.4% and inactive: 10, 13.7, 13.9, 15% | growth (OVCAR-5 ovarian; 25 µM, runs of 1998): active: 8.13, -2.01, -1.49, 4.87, -15.7, 3.64, -22.8, -15.8, 3.42, -4.14, -40.7, -43.4, 3.21, -12.6, -18.8, 8.05, -4.92, -33.5% and inactive: 13.4, 10.4, 12.3, 17.2, 28, 15.8% | growth (OVCAR-5 ovarian; 25 µM, runs of 1999): active: 4.85, -8.88, -29.1, 5.42, -40.5, -100, -60.5, -88.5, -25.8, 0.247, -40.8, 3.89, -30.7, -65.6, -82.7, -45, -31.4% | growth (OVCAR-5 ovarian; 25 µM, runs of 2000): active: -47.2, -100, -49.2, -75.4% | growth (OVCAR-4 ovarian; runs of 2006): inactive: 61.2%, 75.1% | growth (OVCAR-4 ovarian; runs of 2007): inactive: 80, 76.7, 61.5, 70.7, 72.4, 75.4, 80.6, 70.5, 75.9 (2×), 85.6, 65.6, 71.8, 73.5 (2×), 68.3, 64.5, 69.5, 76.5, 69.8, 77.2, 79.6, 72.7 (2×), 82.9, 87.3, 82.4, 89.7, 77.4, 72.8, 43.9, 78.9, 70.3, 79.4, 79.8, 81, 61.2, 77.9, 69.9, 57.7, 58.9, 96.7, 85.5% | growth (OVCAR-4 ovarian; runs of 2008): inactive: 67.2, 70.9, 80.6, 70.7, 75.3, 68.4 (3×), 66.1, 59.5, 63, 80.1, 76.3, 76, 82.4, 87.7, 35.5, 55.5, 59.4, 63.4, 61, 62.2 (2×), 54.3, 58.6 (2×), 56.6, 52.2, 66, 59.1, 86.3, 58.4 (2×), 52.7, 51, 68.7 (2×), 50, 58, 43.4, 60.1, 57.5, 65.5, 72.2, 72.4, 68, 60.3, 64.4, 74, 77.5, 16.3, 62.5, 74.1, 44.8, 80.2, 70.2, 62.9, 64.8% | growth (OVCAR-4 ovarian; runs of 2009): inactive: 51.6, 57.9, 70.9 (2×), 63.3 (2×), 60, 62.4, 67, 76.5, 69.1, 70.5, 66.9 (3×), 78.6, 76.8, 66.8 (4×), 65 (2×), 68.9, 66.5, 65.2, 57.7 (2×), 59.7, 59.4, 60.9, 60.1, 56.5, 64.7 (2×), 75.9, 68.6, 61.9, 69.8, 62 (2×), 67.9, 59.8, 56.4, 55.8, 63.2, 58.1, 62.9, 69.7, 75, 65.8 (2×), 64.3, 63.6, 71.9, 61.3, 61.1, 58.8, 59.9, 67.8, 63.9, 46.9, 60.3, 56.9, 59.2, 79.7, 72.8, 88.3, 86.1, 76.1, 78.2, 69.5, 78.9%
